Patent US20190062448A1, “ANTI-CD39 ANTIBODIES, COMPOSITIONS COMPRISING ANTI-CD39 ANTIBODIES AND METHODS OF USING ANTI-CD39 ANTIBODIES” (Tizona Therapeutics, priority 2017, published 2019)
Substitutions are numbered along the chain they refer to. Entries after “also recorded” stand apart in the source; their conditions may differ.

Legend:
[1] = target: T1, human CD39 on CHO CD39 cells (Homo sapiens, UniProt P49961); assay: Binding to CHO cells expressing human CD39 (flow cytometry)
T1 construct: expressed in transfected cells; host or cells: Chinese Hamster Ovary K1 (CHO)
T1 sequence (P49961 1-510): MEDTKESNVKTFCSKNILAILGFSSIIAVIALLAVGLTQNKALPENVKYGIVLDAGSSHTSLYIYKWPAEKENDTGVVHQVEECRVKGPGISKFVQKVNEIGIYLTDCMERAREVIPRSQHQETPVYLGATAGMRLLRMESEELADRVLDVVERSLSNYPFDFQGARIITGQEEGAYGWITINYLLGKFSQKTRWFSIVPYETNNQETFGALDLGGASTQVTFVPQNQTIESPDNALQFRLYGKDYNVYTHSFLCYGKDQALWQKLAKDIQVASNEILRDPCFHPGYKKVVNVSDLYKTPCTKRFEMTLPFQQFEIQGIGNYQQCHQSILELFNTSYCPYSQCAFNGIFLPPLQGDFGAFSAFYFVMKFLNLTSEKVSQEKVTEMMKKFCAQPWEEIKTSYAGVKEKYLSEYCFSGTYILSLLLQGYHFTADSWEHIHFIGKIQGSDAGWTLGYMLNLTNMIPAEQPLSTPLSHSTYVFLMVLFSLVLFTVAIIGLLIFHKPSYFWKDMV
Description: Binding of anti-CD39 IgGs to Chinese Hamster Ovary K1 (CHO) CD39 cells. 100 nanomolar IgGs (each antibody is indicated as a unique clone number in the FIG.) were incubated at 25° C. for 30 minutes on ice in phosphate buffered saline (PBS) with parental CHO cells or CHO cells engineered to express either human or cynomolgus macaque (Macaca fascicularis) CD39 (CHO CD39 cells). Cells were then washed with ice cold PBS and incubated with a fluorescently labeled goat-anti-human IgG for 20 minutes on ice. Cells were washed and resuspended in ice cold PBS prior to analysis by flow cytrometry. Fold over background binding levels represent the ratio of median fluorescence intensity (MFI) values for anti-CD39 antibodies binding to CHO CD39 to MFI values for anti-CD39 antibodies binding to the parental CHO cells.

[2] = target: T2, hCD39-ECD (Homo sapiens, UniProt P49961); assay: Epitope binning / competition for hCD39-ECD binding by Bio-Layer Interferometry; conditions: A1 immobilized, ECD captured, then competitor antibody
T2 sequence (P49961 38-478 limits assumed): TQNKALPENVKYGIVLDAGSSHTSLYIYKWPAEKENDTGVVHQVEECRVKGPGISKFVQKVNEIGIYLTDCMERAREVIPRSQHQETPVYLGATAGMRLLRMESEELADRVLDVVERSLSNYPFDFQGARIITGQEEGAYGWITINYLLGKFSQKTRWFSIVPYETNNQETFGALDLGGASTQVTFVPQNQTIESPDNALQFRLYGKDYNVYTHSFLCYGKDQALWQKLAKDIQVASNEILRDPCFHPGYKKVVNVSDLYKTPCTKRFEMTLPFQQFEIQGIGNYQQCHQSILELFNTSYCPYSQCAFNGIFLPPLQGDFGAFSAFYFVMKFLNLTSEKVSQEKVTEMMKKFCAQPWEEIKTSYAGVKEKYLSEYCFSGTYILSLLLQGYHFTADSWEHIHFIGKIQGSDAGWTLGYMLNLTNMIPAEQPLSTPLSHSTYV
Text: A1 antibody was immobilized onto an Anti-Mouse IgG Fc Capture (AMC) biosensor (ForteBio). Association of hCD39-ECD was then monitored for 180 seconds via Bio-Layer Interferometry (BLI) using the Octet system (ForteBio), at which point the biosensor was dipped into competitor antibody and monitored for another 180 seconds.
The methods are the same as set forth above except that instead of A1, the representative antibody was immobilized using anti-human IgG Fc Capture (AHC) biosensor.
Also, an 18 hour incubation was used with the antibody or isotype control. Finally, an additional 30 second baseline dip in buffer between antigen capture and dipping into a second competitor antibody for 300 seconds was used.

[3] = target: T3, human-mouse CD39 chimeras (Homo sapiens, UniProt P49961, D150A/E143Q/E153S/L144S/N158S/R147E/R154T/S157K/V151A); assay: Binding to human-mouse CD39 chimeras and point mutants expressed in CHO cells (FACS); conditions: 15 μg/ml antibody
T3 construct: expressed in transfected cells; host or cells: CHO cells
T3 sequence (P49961 1-510 E143Q/L144S/R147E/D150A/V151A/E153S/R154T/S157K/N158S): T1 sequence (P49961 1-510) with E143Q, L144S, R147E, D150A, V151A, E153S, R154T, S157K, N158S
Description: (§1) Chimeras were generated by replacing human CD39 with mouse CD39 sequence in mammalian expression vectors. The chimeras were expressed in CHO cells and the ability of anti-human CD39 antibodies to bind the chimeras tested via FACS. In brief, cells were washed and blocked in FACS buffer (PBS/2% FBS) for 30 min on ice. They were then incubated with 15 μg/ml anti-human CD39 antibodies diluted in FACS buffer×1 h on ice. After 2 washes, cells were incubated with fluorescently labeled anti-human Fc antibodies, anti-mouse Fc antibodies, or anti-mCD39 antibody (R&D Systems 495826) diluted in FACS buffer per manufacturers' instructions×30 min on ice. After 2 washes, cells were resuspended in FACS buffer and analyzed on BD Fortessa. Data was processed with FlowJo. Positive binding was scored as “yes” and lack of binding was scored as “NO” and examples of FACS plots used to generate this table are in FIGS. 14.F and 14.G.
(§2) Chimeras were generated by mutagenesis of Chimera #2 or WT hCD39 expression vectors. Residues for mutagenesis were chosen based on divergence between human and mouse CD39. The chimeras were expressed in CHO cells and the ability of anti-human CD39 antibodies to bind the chimeras tested via FACS, as described in FIG. 14E. Table 2. Positive binding was scored as “Yes” and lack of binding was scored as “No” and examples of FACS plots used to generate this table are in FIGS. 14.F and 14.G.

[4] = target: T4, human-mouse CD39 chimeras (Homo sapiens, UniProt P49961, E276G/I277V/N275G); assay: as above; conditions: 15 μg/ml antibody
T4 construct: expressed in transfected cells; host or cells: CHO cells
T4 sequence (P49961 1-510 N275G/E276G/I277V): T1 sequence (P49961 1-510) with N275G, E276G, I277V
Description: as §1, §2

B1: 27575: anti-CD39 antibody without significant binding to CHO CD39 cells (antibody)
heavy: QVQLVQSGAEVKEPGSSVKVSCKASGGTFSSYATSWVRQAPGQGLEWMGGIIPISGTANYAQEFQGRVTITADESTSTAYMELSSLRSEDTAVYYCARDGGGYRHHYFDLWGRGTLVTVSSASTKGPSVFPLAPCSRSTSESTAALGCLVKDYFPEPVTVSWNSGALTSGVHTFPAVLQSSGLYSLSSVVTVPSSSLGTKTYTCNVDHKPSNTKVDKRV[human IgG4 Fc with S228P (EU numbers) left out here]
light: EIVLTQSPATLSLSPGERATLSCRASQSVSRYLAWYQQKPGQAPRLLIYDASNRATGIPARFSGSGSGTDFTLTISSLEPEDFAVYYCQQHVNFPLTFGGGTKVEIKRTVAAPSVFIFPPSDEQLKSGTASVVCLLNNFYPREAKVQWKVDNALQSGNSQESVTEQDSKDSTYSLSSTLTLSKADYEKHKVYACEVTHQGLSSPVTKSFNRGEC
modifications: Synthetic HC, 27575; Synthetic LC, 27575
- binding to cellular human CD39 (in words) [1]: did not show significant binding

B2: 38347: inhibitory antibody as printed in b528, b532, b535; probably misprint of 28347 (antibody, V domains shown)
VH: QVQLVQSGAEVKKPGSSVKVSCKASGGTFSSLAISWVRQAPGQGLEWMGGIIPIFGTANYAQKFQGRVTITADESTNTAYMELSSLRSEDTAVYYCARGGAKYASTYGMDVWGQGTTVTVSS
VL: DIVMTQSPDSLAVSLGERATINCKSSQSVLFSSNNKNYLAWYQQKPGQPPKLLIYWASTRESGVPDRFSGSGSGTDFTLTISSLQAEDVAVYYCQQYYLYPLTFGGGTKVEIK
- competition with antibody A1 for binding to hCD39 ECD [2]: does not block binding

B3: 31901: inhibitory anti-CD39 antibody, contacts E143-N158 incl. E153, R154; sensitive to N99 (antibody)
heavy: QVQLVQSGAEVKKPGSSVKVSCKASGGTFSSLPISWVRQAPGQGLEWMGGIGFGTANYAQKFQGRVTITADESTSTAYMELSSLRSEDTAVYYCARGGAKYAGRYGMDVWGQGTTVTVSSASTKGPSVFPLAPCSRSTSESTAALGCLVKDYFPEPVTVSWNSGALTSGVHTFPAVLQSSGLYSLSSVVTVPSSSLGTKTYTCNVDHKPSNTKVDKRV[human IgG4 Fc with S228P (EU numbers) left out here]
light: GIVMTQSPDSLAVSLGERATINCKSSQSVLFSSNNKNYLAWYQQKPGQPPKLLIYWASTRASGVPDRFSGSGSGTDFTLTISSLQAEDVAVYYCQQYYLYPLTFGGGTKVEIKRTVAAPSVFIFPPSDEQLKSGTASVVCLLNNFYPREAKVQWKVDNALQSGNSQESVTEQDSKDSTYSLSSTLTLSKADYEKHKVYACEVTHQGLSSPVTKSFNRGEC
modifications: Synthetic HC, 31901; Synthetic LC, 31901
notes: E153, R154; sensitive to N99
- binding to Chimera #2 (human E143-N158 replaced by mouse sequence) [3]: able to bind all chimeras but Chimera #2; also recorded: inability to recognize Chimera #2
- binding to Chimera #4 [4]: able to bind all chimeras but Chimera #2

B4: 31905: inhibitory anti-CD39 antibody, contacts E143-N158 incl. E153, R154; sensitive to N99 (antibody)
heavy: B3 heavy with S30P, L32N, P33A, G103R, R104T
light: B3 light with G1D, Q27K, F31Y, S33N, A61Q, Y98L
modifications: Synthetic HC, 31905; Synthetic LC, 31905
notes: E153, R154; sensitive to N99
- binding to Chimera #2 (human E143-N158 replaced by mouse sequence) [3]: able to bind all chimeras but Chimera #2; also recorded: inability to recognize Chimera #2
- binding to Chimera #4 [4]: able to bind all chimeras but Chimera #2

B5: 31873: inhibitory anti-CD39 antibody, contacts E143-N158 incl. E153, R154; sensitive to N99 (antibody)
heavy: QVQLVQSGAEVKKPGSSVKVSCKASGGTFSKYGISWVRQAPGQGLEWMGSIIPEFGIANYAQKFQGRVTITADESTSTAYMELSSLRSEDTAVYYCARESGGYRDHRLGVWGQGTMVTVSSASTKGPSVFPLAPCSRSTSESTAALGCLVKDYFPEPVTVSWNSGALTSGVHTFPAVLQSSGLYSLSSVVTVPSSSLGTKTYTCNVDHKPSNTKVDKRV[human IgG4 Fc with S228P (EU numbers) left out here]
light: EIVMTQSPATLSVSPGERATLSCRASQSVGSNLAWYQQKPGQAPRLLIYGASTRASGIPARFSGSGSGTEFTLTISSLQSEDFAVYYCQQYLLWPLTFGGGTKVEIKRTVAAPSVFIFPPSDEQLKSGTASVVCLLNNFYPREAKVQWKVDNALQSGNSQESVTEQDSKDSTYSLSSTLTLSKADYEKHKVYACEVTHQGLSSPVTKSFNRGEC
modifications: Synthetic HC, 31873; Synthetic LC, 31873
notes: E153, R154; sensitive to N99
- binding to Chimera #2 (human E143-N158 replaced by mouse sequence) [3]: able to bind all chimeras but Chimera #2; also recorded: inability to recognize Chimera #2
- binding to Chimera #4 [4]: able to bind all chimeras but Chimera #2
